Source: the supplement of paper PMC4466236
The full ranking holds about 33,000 sequences; the median of “E-score (dimensionless, -0.5 to 0.5)” is about -0.058, and the highest 2% start at about 0.35. The list shows a part of the results.

tested on: MvaT; test: PBM 8-mer E-score (mean of HK and ME arrays) (E-score (dimensionless, -0.5 to 0.5)); higher = stronger relative binding preference; most listed sequences are background and not binding sites
Method: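 Protein binding microarray: GST-tagged full-length MvaT (P. aeruginosa PAO1) bound to two universal double-stranded 60-mer arrays (ME and HK), each with a constant 25-mer primer and a variable 35-mer region covering all 8-mers. The 8-mer E-score (rank-based, range -0.5 to 0.5, >0.45 = specific binding) is the mean of the two arrays.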

Sequence | PBM 8-mer E-score
CACTCAGG | -0.246
AACCCACC | 0.00233
GACACCGA | -0.0868
AGCAGCTA | -0.157
GTCGATCA | -0.174
GGTTTCAA | 0.0105
GCCCGGTA | -0.246
ACTTTCTC | 0.00806
CGGACTGC | -0.151
AATGCATG | -0.00242
ATTGAGCG | -0.0447
CGTAAATA | 0.236
ATTTTCCG | 0.181
ATTCGTTA | 0.231
AATCTTGA | 0.0713
GCCCCCTA | -0.3
AGATCGAG | -0.129
GCTGCCCC | -0.201
AGGCATGG | -0.181
ACCCATAA | 0.216
CAGTTAAC | 0.221
GGGGTCAA | -0.266
AAACGAGA | -0.0683
AATGCTTA | 0.137
CGCCCGCA | -0.167

Sequence | PBM 8-mer E-score
CACGCTAA | 0.000335
AGTGCCTG | -0.0207
AGCATGCC | -0.261
GGAAGTCA | -0.0511
GCCTTAGC | -0.264
GTGGTCTA | -0.0936
GATGTCCC | -0.161
ATTTTCGA | 0.0907
ACGATGCT | -0.0713
AACTAGAA | 0.251
GTCAGGAC | -0.053
CCTAACCC | -0.192
CTAGTAGA | -0.0255
CACGGCCC | -0.26
CTTGGGAA | -0.084
AGCGCCCG | -0.268
ACACCGTC | -0.119
CAGTTGAC | 0.0902
CCGCGCCA | -0.218
GCGTTGAA | 0.129
AATAGAAC | 0.143
TGAACTCA | -0.0486
GCCCTGAA | 0.0414
AATCGCTA | 0.0672
CCTAAAGC | -0.268

Sequence | PBM 8-mer E-score
ATGAAATA | 0.228
GGGTAGAA | -0.00939
ACCCAACG | -0.0289
ATCCATAC | 0.0888
GGGAGTAC | -0.145
CTTCAACC | -0.107
GCAGGCCC | -0.325
ATATGGAC | 0.108
CCCATTCC | -0.283
AAACTCCC | -0.103
AAGATTAG | 0.179
CTTTAACA | 0.128
GTTAATTA | 0.415
AGAGTGAT | 0.0601
CGCGGCGA | -0.271
AACGGACG | -0.165
ATGTTCTC | 0.093
CTACTTTC | -0.0258
AGCCGGGA | -0.224
ATGTCAGC | -0.039
ACGGTTCT | -0.104
GTGTGCGA | 0.0377
CGGTCGAC | -0.295
GTTGAGGA | -0.181
AAAATAAA | 0.409

Sequence | PBM 8-mer E-score
CCGCATTA | -0.0627
ATACCCTC | -0.12
ATCGAGTA | 0.00286
AGTTATGA | 0.319
CTTTGTGC | -0.143
TCCACTCA | -0.0806
CGGCGAAC | -0.132
ATTCAAAA | 0.252
TGATGCCA | -0.236
CGGTTGTA | 0.0957
AAGGGTTG | -0.1
ACTAGTCA | 0.0987
CTCGCATA | 0.0368
ATACAGAT | 0.0944
AAATATCA | 0.304
CCCGATAC | -0.162
GTGCCAAA | -0.102
AAGTTACC | 0.149
CCGGCCCA | -0.132
CTACGAAC | -0.141
TCTGAACA | 0.0206
GAAACGTC | -0.204
ATGGTCTA | -0.147
CCAATAGG | -0.195
CTATTAGA | 0.208

Sequence | PBM 8-mer E-score
CGGGGTGC | -0.246
AAACTGCT | 0.0621
CCTGCTTA | -0.0256
CTGCTGTA | 0.0204
GAGATGTA | 0.14
GAAGAAGA | -0.164
ATCCCCTC | -0.255
CGTACGAA | 0.0643
CTTGTTAA | 0.232
AACTGCCT | -0.0484
AAACTGTC | 0.0337
CTCTTCAA | -0.0688
ACGAACTA | 0.146
TCGGTCCA | -0.0143
GTACTGTA | 0.157
ATGGCGAC | -0.142
ACTAATAG | 0.199
AAACTGAC | 0.083
GATTTTCC | 0.0494
AAACACAG | 0.108
CCCGTTAC | -0.113
TCGTCAAA | 0.0365
AAGCTCCG | -0.128
AGCGAAGA | -0.0675
CTACGGTA | 0.0649

Sequence | PBM 8-mer E-score
AATTTGGA | 0.0151
CAAAGTAA | 0.216
ACTTCAAA | 0.251
ACCCTTCG | -0.302
CCATCCGG | -0.306
CGATATAA | 0.395
AGAATTGG | -0.0665
CCGGAAAA | -0.0324
ACCAATGC | -0.226
GTAGGCAC | -0.224
CTACACAG | -0.0757
AACGATTC | -0.111
ACTTTCGG | 0.0277
CAAGTCGG | -0.0948
CCGTAACA | -0.0477
CGGCTGGC | -0.234
AGCATTTG | 0.00649
AAAGAAGG | -0.154
GCGAAAGC | -0.161
AGTACAGG | 0.0418
ATAATGTC | 0.337
AATCAAGT | 0.137
AACTATGT | 0.258
ACTAGAAT | 0.144
CCGGGGAG | -0.245

Sequence | PBM 8-mer E-score
ACCAGGGA | -0.192
ACTTCCAA | 0.193
ATGCACAT | 0.11
ATTTGTCA | 0.185
ATGTAAGA | 0.175
ACACGACG | -0.192
GTGACTCA | -0.217
ACCACCTG | -0.22
GCAGTCAC | -0.0976
CAAACCGC | -0.204
ACGCGCAA | 0.228
AAGGGCTC | -0.239
CACTCATA | 0.0409
CGATGCCA | -0.192
AATTGTTG | 0.232
GATAAAGA | 0.271
ACAGATTG | -0.0531
CGACCGGA | -0.15
GTGGAAGA | -0.0251
CTAGGTGC | -0.0635
CGGCCGAC | -0.135
ACAGAGAA | 0.0708
ACTGGCGG | 0.0267
GTAAGTCA | 0.125
TATTGAGA | 0.224

Sequence | PBM 8-mer E-score
CCTTTAAG | -0.0641
ACCGGCGG | -0.0906
ACGCCCGA | -0.00671
CGAAAAAG | 0.0951
GCATCAAC | -0.0551
AAAATTTA | 0.311
CCTGTAAG | -0.0994
ACTTCCCA | -0.000597
CCGGATAG | -0.131
AATGCAGC | 0.0155
GGGGCATA | -0.105
ACCAAAAG | -0.0953
AGGCTGCG | -0.189
CCTGGGCC | -0.238
TAATTTCA | 0.323
ACCGAGTG | -0.0732
TCATAAGA | 0.0931
CGCGGTAC | -0.165
TACATCCA | 0.203
AGTATTCA | 0.203
TCATCCCA | -0.103
GACTCTAA | 0.049
CCAGTAAA | 0.0684
TAGTTGGA | 0.0717
TCGGCTAA | 0.00806

Sequence | PBM 8-mer E-score
AGACGGTA | -0.203
AGAATGAA | 0.0569
ACTCGAGT | -0.14
CACCCAGC | -0.0519
GCTCAGAC | -0.291
AACCCGTT | 0.0662
AATTGGGG | 0.0515
AGGCAGCC | -0.258
AAAACGGG | -0.0606
CGCCTCCC | -0.293
GAAGCTCA | -0.168
CAAGAGCA | -0.156
ATCCACCA | -0.0254
CCACGCAA | -0.137
CTTGCTTA | 0.11
ACGCGCAC | -0.00656
GAAGAGCA | -0.08
AACACATA | 0.262
GTGCCTGA | -0.013
TCAACAAA | 0.271
TACACCGA | -0.00705
ATATGCCA | 0.181
AACCCGGT | -0.215
GAAAAGGC | -0.0698
AAACGATG | -0.00663

Sequence | PBM 8-mer E-score
TAGCTGCA | -0.0239
ATATGGGC | 0.0167
ACAACGGT | -0.14
ACACGGTA | -0.0803
AAAGAGAT | 0.143
TACAGATA | 0.184
AATCCTGC | -0.0553
CCACCGAC | -0.163
ATAGGGGA | -0.161
GGCCGTGA | -0.233
GCAGTCGC | -0.263
AGGTACCC | -0.316
CTTATAGC | 0.229
CATCCAAC | 0.071
ATGAGGCA | -0.149
GACGTTGC | -0.0956
ATATGCGC | 0.206
ATATCATA | 0.254
AACCCGGG | -0.174
GAGGGTGA | -0.0963
TAGCTAGA | -0.0721
AAGTACGG | 0.0543
CATAGTAG | 0.109
CTATGAGC | -0.1
AAGTCCCC | -0.191

Sequence | PBM 8-mer E-score
CAATGCTC | -0.203
ATTGTAAG | 0.245
CAAACTTG | 0.203
CGGCACCG | -0.142
AATGCCGC | -0.0147
CACGACTC | -0.0476
GAACAACC | -0.0763
CAGAGGGC | -0.303
ACTACAGG | -0.159
ATGACGAA | 0.0517
CTACCAGC | -0.185
ACTCGGAC | -0.21
AGAAGCGG | -0.204
CCGTGGGC | -0.244
AGCCAGTC | -0.178
AGACTGCC | -0.192
CACCACCG | -0.0443
ACTAAGCT | 0.00751
AGTTTGAG | 0.102
AGTATGAA | 0.172
CGAACTCA | -0.0442
GCAGCCAC | -0.276
ATACTCCA | 0.188
ACCCTGTG | -0.0652
CCCGGTTA | 0.00633

Sequence | PBM 8-mer E-score
AACTCCAT | -0.00507
GCGGTTCC | -0.178
AAACGCGT | 0.083
CAATCTCA | -0.0118
CGGCCGCA | -0.237
AAACCAGT | -0.00288
ACGGAATC | 0.00389
AAAAGTCG | 0.177
GTGATTAA | 0.28
GATTCTAC | -0.0548
GCACGACA | -0.187
TCGAGAGA | -0.0572
AACTGGCG | -0.101
CGAGGGAC | -0.263
CTACCTAG | -0.194
AAGGTAAT | 0.102
CTAAGCCC | -0.151
GATGTCGA | -0.0845
CTGCCCTA | -0.117
AAGAATGG | 0.0719
CGATCGTA | 0.0551
AATATTTC | 0.404
AGTTTGCG | 0.0821
TAGGAGCA | -0.115
CAGTTAGA | 0.077

Sequence | PBM 8-mer E-score
CGAGACCA | -0.228
CGTCACAA | 0.201
ATTCGTAA | 0.204
GATACCGC | -0.109
ATCATGTA | 0.117
ATGTCATG | -0.0224
GCAAGCAC | -0.248
TATACACA | 0.262
GCCTGAGA | -0.214
AAGAACTC | -0.0276
CATGGGCG | -0.224
CTAAGGTC | -0.164
GGACGAGA | -0.216
ATACGCTG | -0.0925
ATTCTATA | 0.229
TCCTATCA | -0.0448
GGTAGCGA | -0.246
CTCGTTCC | -0.186
ACAAAATG | 0.0821
CTACAAGC | -0.133
GATTAGGC | -0.112
ACGATTAC | -0.0273
CATGGCCA | -0.276
CCAGAGCA | -0.188
CCTTAACC | -0.0489

Sequence | PBM 8-mer E-score
CGGATACA | 0.0887
AATTGACG | 0.224
GTTACGCA | 0.018
CCGCATCA | -0.115
CAGTGGAA | -0.0449
AGATCCTG | -0.266
CAGTACCA | -0.0173
CTTCCTCA | -0.154
AATTGATA | 0.339
ATGACACA | 0.0646
AGCGGGAA | -0.185
ATGATCGC | -0.037
CCCCTCTC | -0.119
AAGGTGTA | -0.0643
CACTGCCA | -0.183
GGGGGACC | -0.398
CGATCTAA | -0.0538
AACCCAGT | -0.0508
AAAGCATT | -0.00799
